Experimental data: PubChem BioAssay AID485294 (National Center for Advancing Translational Sciences (NCATS), 2010)
The campaign covered roughly 370,000 compounds. About 150 (0.041%) were called active. The shares of active, inactive and inconclusive entries below differ from those in the screen. Calls follow the shape of the dose curve; as a rule, active = well fitted inhibition curve with a large enough effect; inconclusive = small, poorly fitted or top-dose-only effect; inactive = flat fitted curve, though single readings scatter. No potency is given beside an inconclusive call; the fits are too rough.

The molecules below were run against Beta-lactamase (Escherichia coli (strain K12)) (UniProt P00811) (assay: qHTS Inhibitors of AmpC Beta-Lactamase (assay with detergent)). Conditions: AmpC hydrolysis of nitrocefin, absorbance 480 nm, 0.01% Triton; series mostly up to 114 µM.
Summary of the method: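 AmpC (5.3 nM in the dispensed reagent) in 20 mM phosphate pH 7.0 with 0.01% (detergent screen) or 0.0001% Triton X-100 was preincubated with compounds for 15 min at room temperature. Nitrocefin was then added from an 800 uM solution, and hydrolysis was followed at 480 nm.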
Also: nearly all actives have a fitted effect of over 25% in size.
Potency is read from the fitted curve at half-maximal effect; tags tell the direction and shape of the fitted curve.

Sequence of UniProt P00811 (P00811 whole entry, looked up): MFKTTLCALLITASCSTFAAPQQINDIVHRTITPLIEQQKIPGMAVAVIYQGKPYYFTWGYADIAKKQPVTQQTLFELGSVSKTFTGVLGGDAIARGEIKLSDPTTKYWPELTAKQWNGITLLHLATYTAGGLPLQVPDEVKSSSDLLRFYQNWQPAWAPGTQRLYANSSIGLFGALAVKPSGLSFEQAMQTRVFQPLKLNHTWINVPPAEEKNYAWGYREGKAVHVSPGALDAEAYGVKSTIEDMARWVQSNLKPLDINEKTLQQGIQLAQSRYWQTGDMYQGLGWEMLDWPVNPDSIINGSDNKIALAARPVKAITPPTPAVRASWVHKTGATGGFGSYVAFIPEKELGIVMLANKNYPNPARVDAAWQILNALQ

| SMILES | Potency |
| --- | --- |
| CCCc1cc(=O)[nH]c(SCC(=O)Nc2cccc(S(=O)(=O)N3CCCCC3)c2)n1 | inconclusive [inhibitor, full curve, poor fit] |
| COC(=O)c1cccc(NC(=O)CCCN2C(=O)NC3(CCCC3)C2=O)c1 | inconclusive [inhibitor, full curve, poor fit] |
| COc1ccccc1CNC(=O)C(=O)NCC1OCCN1S(=O)(=O)c1ccc2c(c1)OCCO2 (configuration not stated) | inconclusive [inhibitor, partial curve, poor fit] |
| CC(=O)Nc1cccc(OCc2ccc(F)cc2)c1 | inconclusive [inhibitor, full curve] |
| O=C(O)C1CSC2(CCN(Cc3ccccc3)CC2)N1 (configuration not stated) | inconclusive [inhibitor, full curve, poor fit] |
| Cc1ccc(SCCSc2ncccn2)cc1 | inconclusive [inhibitor, full curve, poor fit] |
| COCCOc1ccc(C(F)(F)F)cc1NC(=O)c1ccccc1 | inactive |
| O=C(COc1ccccc1)Nc1ccc(S(=O)(=O)N2CCCC2)cc1 | inconclusive [inhibitor, full curve, poor fit] |
| COc1ccc(NC(=O)CN(C)C(=O)C2CC(=O)N(c3ccc4c(c3)OCCO4)C2)cc1 (configuration not stated) | inconclusive [inhibitor, full curve, poor fit] |
| O=C1c2oc3ccccc3c(=O)c2C(c2cccs2)N1CCCN1CCOCC1 (configuration not stated) | inconclusive [inhibitor, partial curve, poor fit] |
| CCCN(CCC)C(=O)CSc1nnc2cc(C)c3ccccc3n12 | inactive |
| CCN(CC)c1ccc(S(=O)(=O)N2CCOCC2)cc1NC(=O)c1cc(=O)c2ccccc2o1 | inconclusive [inhibitor, partial curve, poor fit] |
| O=C(NCCN1C(=O)C2C3C=CC(C3)C2C1=O)N1CCOCC1 (configuration not stated) | inconclusive [inhibitor, full curve] |
| COc1cc(CN2CCN(Cc3cn(C)c4ccccc34)CC2CCO)cc(OC)c1 (configuration not stated) | inconclusive [inhibitor, full curve, poor fit] |
| Clc1ncn(C23CC4CC(CC(C4)C2)C3)n1 | inconclusive [inhibitor, full curve, poor fit] |
| CCCCc1ccc(NC(=S)NCc2cccs2)cc1 | inconclusive [inhibitor, partial curve] |
| COc1cc2c(cc1OC)C(COc1ccccc1OC)N(C(C)=O)CC2 (configuration not stated) | inconclusive [inhibitor, partial curve, poor fit] |
| Cn1c(C(C#N)C(=O)c2ccco2)nc2ccccc21 (configuration not stated) | inconclusive [inhibitor, full curve, poor fit] |
| CN(CCCNC(=O)C1CCC(=O)N1Cc1ccc(F)cc1)c1ccccc1 (configuration not stated) | inconclusive [inhibitor, full curve, poor fit] |
| COc1ccc(CCNC(=O)c2ccc(NS(=O)(=O)c3ccc4[nH]c(=O)[nH]c4c3)cc2)cc1OC | inconclusive [inhibitor, partial curve] |
| CN(Cc1cn(C)c2ccccc12)C(=S)Nc1cc(F)cc(F)c1 | inactive |

| SMILES | Potency |
| --- | --- |
| Cc1nnc(C)c2c(C)n(-c3cccc4cccnc34)c(C)c12 | inconclusive [inhibitor, single point] |
| CC1CC2(O)c3no[n+]([O-])c3CCC2N1O (configuration not stated) | inconclusive [inhibitor, single point] |
| CCOc1ccc(NC(=O)CN(C)C(=O)CCCOc2ccc(Br)cc2)cc1OCC | inconclusive [inhibitor, partial curve, poor fit] |
| CC(=O)c1c(C)n(-c2ccc(C)cc2)c2ccc(O)cc12 | inconclusive [inhibitor, partial curve] |
| COc1ccc(/C=C2\C(=O)N(c3c(Cl)cc(Cl)cc3Cl)N=C2NC(=O)c2cccc([N+](=O)[O-])c2)cc1 | inactive |
| O=C(NCc1ccc(F)cc1)C(c1ccccc1)N(CC1CCCO1)C(=O)Cn1nnc2ccccc21 (configuration not stated) | inactive |
| CC(C)(C)OC(=O)N1Cc2ccccc2C[C@H]1C(=O)NCC(=O)Nc1ccc2c(c1)OCCO2 | inconclusive [inhibitor, partial curve] |
| O=C(CSc1ncnc2sccc12)Nc1ccc(S(=O)(=O)N2CCOCC2)cc1 | inconclusive [inhibitor, partial curve] |
| O=C(O)CSc1cccc2cccnc12 | inconclusive [inhibitor, partial curve, poor fit] |
| CCOc1ccc(N2C(=O)CC(N(O)c3ccccc3)C2=O)cc1 (configuration not stated) | inconclusive [inhibitor, full curve, poor fit] |
| Cc1ccc2c(COn3nnc4ccc(S(=O)(=O)N(C)C)cc43)cc(=O)oc2c1C | inactive |
| O=C(COc1ccccc1[N+](=O)[O-])Nc1ccc(N2CCN(C(=O)c3cccs3)CC2)cc1 | inactive |
| O=C(C1CCN(S(=O)(=O)c2ccc(Cl)cc2)CC1)N1CCC1 | inconclusive [inhibitor, partial curve, poor fit] |
| Cc1ccc(/C(O)=C2/C(=O)C(=O)OC2c2ccc(Cl)cc2)cc1 (configuration not stated) | inconclusive [inhibitor, partial curve, poor fit] |
| CCOc1ccc(NC(=O)NCC2CCN(c3ccc(OC)cc3)C2)cc1 (configuration not stated) | inconclusive [inhibitor, full curve, poor fit] |
| Cc1ccc(NC(=O)C2CCC2)cc1S(=O)(=O)N1CCCCCC1 | inconclusive [inhibitor, partial curve, poor fit] |
| Cc1ccc(C(=O)NCC(=O)OCC(=O)c2ccc(C)c([N+](=O)[O-])c2)cc1 | inconclusive [inhibitor, partial curve] |
| CSc1nc2sc3c(c2c2nnnn12)CCC3 | inconclusive [inhibitor, full curve, poor fit] |
| O=C(Nc1ccc(Cl)cc1)C1C2C=CC3(O2)C1C(=O)N(CCN1CCCCC1)C3C(=O)NC1CCCCC1 (configuration not stated) | inconclusive [inhibitor, partial curve, poor fit] |
| CCOC(=O)Oc1ccc2oc(=O)cc(C)c2c1 | inconclusive [inhibitor, full curve, poor fit] |
| O=C1CC(NS(=O)(=O)c2ccc([N+](=O)[O-])cc2)CN1c1cccc(F)c1 (configuration not stated) | inconclusive [inhibitor, partial curve] |

| SMILES | Potency |
| --- | --- |
| O=C(CSc1nnc(-c2ccc3c(c2)OCCO3)o1)NC1CCCCC1 | inconclusive [inhibitor, partial curve, poor fit] |
| Cc1cccc(OCCSc2nnc(-c3ccoc3C)n2C)c1 | inconclusive [inhibitor, full curve, poor fit] |
| COCCNC(=O)c1ccc2c(c1)C(=O)c1ccccc1-2 | inactive |
| COc1ccc2c(CC(=O)Nc3ccc(OC)c(NS(=O)(=O)c4ccc(F)cc4)c3)coc2c1 | inconclusive [inhibitor, full curve, poor fit] |
| COc1ccc(C)cc1NC(=O)CN1CCN(S(=O)(=O)c2ccc(Br)cc2)CC1 | inconclusive [inhibitor, partial curve, poor fit] |
| COc1ccc(NC(=O)Nc2ccccc2SC)c(OC)c1 | inactive |
| O=C(Cn1c(=O)oc2ccccc21)Nc1ccc(S(=O)(=O)N2CCCCC2)cc1 | inconclusive [inhibitor, full curve, poor fit] |
| c1ccc(CSc2ccc3nnc(-c4cccnc4)n3n2)cc1 | inconclusive [inhibitor, partial curve, poor fit] |
| COc1ccc(/C=C(/NC(=O)/C=C/c2ccccc2)C(=O)N2CCOCC2)cc1 | inconclusive [inhibitor, partial curve, poor fit] |
| Cc1cccc(NC(=O)CSCC(=O)N2CCN(C(=O)c3ccco3)CC2)c1 | inconclusive [inhibitor, full curve, poor fit] |
| CC(C)OCCCNC(=O)c1nn(C)c2c1CSc1ccccc1-2 | inactive |
| CCn1c(CNC(=O)c2ccco2)nnc1SCC(=O)Nc1cc(C)c(C)cc1Br | inconclusive [inhibitor, full curve, poor fit] |
| CCC(C)(C)NC(=O)C(c1ccc(OC)cc1)N(C(=O)CCC(=O)Nc1cc(C)on1)c1ccc(OC)c(OC)c1 (configuration not stated) | inconclusive [inhibitor, partial curve] |
| CC1(c2cccs2)CC(c2cccs2)=C(C#N)C(=O)N1 (configuration not stated) | inconclusive [inhibitor, single point] |
| O=C1CN(C(=O)CSc2nnc(C3CC3)n2-c2ccccc2)c2ccccc2N1 | inactive |
| O=C(NC1CCCCC1)c1ccc(N2CCCC2=O)cc1 | inconclusive [inhibitor, full curve, poor fit] |
| Cc1ncoc1C(=O)N1CCc2c([nH]c3ccccc23)C1C(C)(C)C (configuration not stated) | inactive |
| N#CC1=C(SCC(=O)Nc2ccccc2)NC(=O)CC1c1ccc(O)cc1 (configuration not stated) | inconclusive [inhibitor, full curve] |
| CCc1cnc2c(c1SCCC(C)C)c(=O)n(C)c(=O)n2C | inactive |
| O=C(c1ccc2c(=O)n(Cc3ccco3)c(=S)[nH]c2c1)N1CCN(Cc2ccccc2)CC1 | inconclusive [inhibitor, partial curve] |
